# Source: the supplement of paper PMC8728848
# The other results are listed elsewhere or left out.
# B1: SEX4 (Arabidopsis thaliana), Q944A8 (protein)
# chain: TQAMGAVLTYRHELGMNYNFIRPDLIVGSCLQTPEDVDKLRKIGVKTIFCLQQDPDLEYFGVDISSIQAYAKKYSDIQHIRCEIRDFDAFDLRMRLPAVVGTLYKAVKRNGGVTYVHCTAGMGRAPAVALTYMFWVQGYKLMEAHKLLMSKRSCFPKLDAIRNATIDILTGLKRKTVTLTLKDKGFSRVEISGLDIGWGQRIPLTLGKGTGFWILKRELPEGQFEYKYIIDGEWTHNEAEPFIGPNKDGHTNNYAKVVDDPTSVDGTTRERLSSEDPELLEEERSKLIQFLETCSEAEV
# How the values were obtained:
# Test in all cases: glycan array binding signal (z-score within array); higher = stronger binding
# Details in all cases: glycan notation: IUPAC condensed, linker removed
# [1] = target: Fuc(a1-3)[Gal(b1-4)]GlcNAc6S
# How it was run: (§1)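 From the Consortium for Functional Glycomics database, 3228 arrays were curated, keeping only those whose protein sequence was available. Binding is given as a within-array Z-score averaged across arrays sharing a protein sequence and across linkers. Negative Z-scores can be read as non-binding.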
# [2] = target: Fuc(a1-3)[Gal3S(b1-4)]GlcNAc
# How it was run: as §1
# [3] = target: Fuc(a1-3)[Gal3S(b1-4)]GlcNAc6S
# How it was run: as §1
# [4] = target: Fuc(a1-3)[GalNAc(b1-4)]GlcNAc
# How it was run: as §1
# Fuc(a1-4)GlcNAc = target: Fuc(a1-4)GlcNAc
# How it was run: as §1
# Fuc(b1-3)GlcNAc = target: Fuc(b1-3)GlcNAc
# How it was run: as §1
# Gal(a1-2)Gal = target: Gal(a1-2)Gal
# How it was run: as §1
# Gal(a1-3)Gal = target: Gal(a1-3)Gal
# How it was run: as §1
# Gal(a1-3)Gal(b1-3)GlcNAc = target: Gal(a1-3)Gal(b1-3)GlcNAc
# How it was run: as §1
# [5] = target: Gal(a1-3)Gal(b1-3)GlcNAc(b1-2)Man(a1-3)[Gal(a1-3)Gal(b1-3)GlcNAc(b1-2)Man(a1-6)]Man(b1-4)GlcNAc(b1-4)GlcNAc
# How it was run: as §1
# [6] = target: Gal(a1-3)Gal(b1-3)GlcNAc(b1-3)GalNAc
# How it was run: as §1
# [7] = target: Gal(a1-3)Gal(b1-3)[Fuc(a1-4)]GlcNAc(b1-2)Man(a1-3)[Gal(a1-3)Gal(b1-3)[Fuc(a1-4)]GlcNAc(b1-2)Man(a1-6)]Man(b1-4)GlcNAc(b1-4)GlcNAc
# How it was run: as §1
# Gal(a1-3)Gal(b1-4)Glc = target: Gal(a1-3)Gal(b1-4)Glc
# How it was run: as §1
# Gal(a1-3)Gal(b1-4)GlcNAc = target: Gal(a1-3)Gal(b1-4)GlcNAc
# How it was run: as §1
# [8] = target: Gal(a1-3)Gal(b1-4)GlcNAc(b1-3)GalNAc
# How it was run: as §1
# [9] = target: Gal(a1-3)Gal(b1-4)[Fuc(a1-3)]GlcNAc
# How it was run: as §1
# [10] = target: Gal(a1-3)Gal(b1-4)[Fuc(a1-3)]GlcNAc(b1-2)Man(a1-3)[Gal(a1-3)Gal(b1-4)[Fuc(a1-3)]GlcNAc(b1-2)Man(a1-6)]Man(b1-4)GlcNAc(b1-4)GlcNAc
# How it was run: as §1
# Gal(a1-3)GalNAc = target: Gal(a1-3)GalNAc
# How it was run: as §1
# [11] = target: Gal(a1-3)[Gal(a1-4)]Gal(b1-4)GlcNAc
# How it was run: as §1
# [12] = target: Gal(a1-4)Gal(b1-3)GlcNAc(b1-2)Man(a1-3)[Gal(a1-4)Gal(b1-3)GlcNAc(b1-2)Man(a1-6)]Man(b1-4)GlcNAc(b1-4)GlcNAc
# How it was run: as §1
# Gal(a1-4)Gal(b1-4)Glc = target: Gal(a1-4)Gal(b1-4)Glc
# How it was run: as §1
# Gal(a1-4)Gal(b1-4)GlcNAc = target: Gal(a1-4)Gal(b1-4)GlcNAc
# How it was run: as §1
# [13] = target: Gal(a1-4)Gal(b1-4)GlcNAc(b1-2)Man(a1-3)[Gal(a1-4)Gal(b1-4)GlcNAc(b1-2)Man(a1-6)]Man(b1-4)GlcNAc(b1-4)GlcNAc
# How it was run: as §1
# [14] = target: Gal(a1-4)Gal(b1-4)GlcNAc(b1-3)Gal(b1-4)Glc
# How it was run: as §1
# Gal(a1-4)GlcNAc = target: Gal(a1-4)GlcNAc
# How it was run: as §1
# Gal(a1-6)Glc = target: Gal(a1-6)Glc
# How it was run: as §1
# Gal(b1-2)Gal = target: Gal(b1-2)Gal
# How it was run: as §1
# Gal(b1-3)Gal = target: Gal(b1-3)Gal
# How it was run: as §1
# Gal(b1-3)Gal(b1-4)GlcNAc = target: Gal(b1-3)Gal(b1-4)GlcNAc
# How it was run: as §1
# [15] = target: Gal(b1-3)Gal(b1-4)GlcNAc(b1-2)Man(a1-3)[Gal(b1-3)Gal(b1-4)GlcNAc(b1-2)Man(a1-6)]Man(b1-4)GlcNAc(b1-4)GlcNAc
# How it was run: as §1
# Gal(b1-3)GalNAc = target: Gal(b1-3)GalNAc
# How it was run: as §1
# [16] = target: Gal(b1-3)GalNAc(a1-3)[Fuc(a1-2)]Gal(b1-4)Glc
# How it was run: as §1
# [17] = target: Gal(b1-3)GalNAc(a1-3)[Fuc(a1-2)]Gal(b1-4)GlcNAc
# How it was run: as §1
# [18] = target: Gal(b1-3)GalNAc(b1-3)Gal(a1-4)Gal(b1-4)Glc
# How it was run: as §1
# [19] = target: Gal(b1-3)GalNAc(b1-4)Gal(b1-4)Glc
# How it was run: as §1
# [20] = target: Gal(b1-3)GalNAc(b1-4)[Neu5Ac(a2-3)]Gal(b1-4)Glc
# How it was run: as §1
# Gal(b1-3)GlcNAc = target: Gal(b1-3)GlcNAc
# How it was run: as §1
binder,measurement,setting,value
B1,glycan array binding signal (z-score),[1],0.148
same,glycan array binding signal (z-score),[2],-0.363
same,glycan array binding signal (z-score),[3],0.767
same,glycan array binding signal (z-score),[4],-0.285
same,glycan array binding signal (z-score),Fuc(a1-4)GlcNAc,-0.535
same,glycan array binding signal (z-score),Fuc(b1-3)GlcNAc,-0.464
same,glycan array binding signal (z-score),Gal(a1-2)Gal,-0.353
same,glycan array binding signal (z-score),Gal(a1-3)Gal,0.074
same,glycan array binding signal (z-score),Gal(a1-3)Gal(b1-3)GlcNAc,-0.21
same,glycan array binding signal (z-score),[5],0.16
same,glycan array binding signal (z-score),[6],1.38
same,glycan array binding signal (z-score),[7],1.1
same,glycan array binding signal (z-score),Gal(a1-3)Gal(b1-4)Glc,-0.237
same,glycan array binding signal (z-score),Gal(a1-3)Gal(b1-4)GlcNAc,0.108
same,glycan array binding signal (z-score),[8],-0.148
same,glycan array binding signal (z-score),[9],0.169
same,glycan array binding signal (z-score),[10],0.379
same,glycan array binding signal (z-score),Gal(a1-3)GalNAc,-0.341
same,glycan array binding signal (z-score),[11],-0.539
same,glycan array binding signal (z-score),[12],0.228
same,glycan array binding signal (z-score),Gal(a1-4)Gal(b1-4)Glc,-0.554
same,glycan array binding signal (z-score),Gal(a1-4)Gal(b1-4)GlcNAc,-0.482
same,glycan array binding signal (z-score),[13],-0.366
same,glycan array binding signal (z-score),[14],-0.01
same,glycan array binding signal (z-score),Gal(a1-4)GlcNAc,-0.518
same,glycan array binding signal (z-score),Gal(a1-6)Glc,-0.423
same,glycan array binding signal (z-score),Gal(b1-2)Gal,-0.357
same,glycan array binding signal (z-score),Gal(b1-3)Gal,-0.552
same,glycan array binding signal (z-score),Gal(b1-3)Gal(b1-4)GlcNAc,-0.509
same,glycan array binding signal (z-score),[15],-0.329
same,glycan array binding signal (z-score),Gal(b1-3)GalNAc,-0.309
same,glycan array binding signal (z-score),[16],-0.41
same,glycan array binding signal (z-score),[17],-0.415
same,glycan array binding signal (z-score),[18],-0.231
same,glycan array binding signal (z-score),[19],-0.298
same,glycan array binding signal (z-score),[20],1.17
same,glycan array binding signal (z-score),Gal(b1-3)GlcNAc,-0.554
